Reference: PubChem BioAssay AID1745853 (National Center for Advancing Translational Sciences (NCATS), 2022)
Some of the results follow. The main result of the screen is listed elsewhere. These columns were measured beside it and carry no call. Square brackets hold non-standard residues; d marks the D form. Peptide text beside a SMILES is read from it. PhLac = O=C(O)[CH](O)Cc1ccccc1; NMeV = CN[CH](C(=O)O)C(C)C

Experiments:
Assay in all cases: Primary Screen for Target Class Profiling of Small Molecule Inhibitors of Methyltransferases
[1] = target: Glycine N-methyltransferase (Homo sapiens) (UniProt Q14749); settings: purified enzyme, MTase-Glo SAH luminescence; measured here: GNMT inhibition; at 40 µM; stronger effect = lower value
Summary of the method: (§1)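 Each enzyme was assayed with SAM and its substrate. SAH formation detected by MTase-Glo luminescence; single-point 40 uM screen[…].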

[2] = target: Guanidinoacetate N-methyltransferase (Homo sapiens) (UniProt Q14353); settings: purified enzyme, MTase-Glo SAH luminescence; measured here: GAMT inhibition; at 40 µM; stronger effect = lower value
Summary of the method: as §1

[3] = target: Histamine N-methyltransferase (Homo sapiens) (UniProt P50135); settings: purified enzyme, MTase-Glo SAH luminescence; measured here: HNMT inhibition; at 40 µM; stronger effect = lower value
Summary of the method: as §1

[4] = target: Nicotinamide N-methyltransferase (Homo sapiens) (UniProt P40261); settings: purified enzyme, MTase-Glo SAH luminescence; measured here: NNMT inhibition; at 40 µM; stronger effect = lower value
Summary of the method: as §1

[5] = target: Phenylethanolamine N-methyltransferase (Homo sapiens) (UniProt P11086); settings: purified enzyme, MTase-Glo SAH luminescence; measured here: PNMT inhibition; at 40 µM; stronger effect = lower value
Summary of the method: as §1
% is set by controls: 0 for no effect and ±100 for the full control effect.

| SMILES | activity change, negative = inhibition [1] [%] | activity change, negative = inhibition [2] [%] | activity change, negative = inhibition [3] [%] | activity change, negative = inhibition [4] [%] | activity change, negative = inhibition [5] [%] |
| --- | --- | --- | --- | --- | --- |
| CC(C)OC(=O)N1CCC(COc2cnc3c(ccn3CC(N)=O)c2)CC1 | -4.06 | -0.108 | 0.368 | -4.15 | -15 |
| CC(C)C(C(=O)N1CCCC1C(=O)O)N(C)C(=O)C(O)Cc1ccccc1 (stereo not given) (H-[PhLac]-[NMeV]-Pro-OH; configuration not given here) | 3.5 | 0.439 | 10.2 | -12 | 5.13 |
| COCCN(Cc1ccccc1F)Cc1cc2c(cc1OC)OCO2 | -3.57 | -1.89 | -10.8 | -15.2 | -5.51 |
| CC1(C(=O)Nc2ccc(F)nc2)CCCN1c1nc(Nc2cc(C3CC3)[nH]n2)c2cccn2n1 (stereo not given) | -4.02 | 2.38 | 8.18 | -20.1 | -2.06 |
| Cn1c(=O)c2ccc(C(=O)NC3CCCC3)cc2n2c(=O)n(CC(=O)c3ccc(Cl)cc3)nc12 | 3.85 | 0 | 3.82 | 4.11 | 1.86 |
| CCCn1c(=O)c2ccc(Cl)cc2n2c(SCC(=O)Nc3ccc(OC)cc3)nnc12 | 1.67 | 4.03 | 3.68 | 3.49 | 0.285 |
| CCCn1c(=O)c2ccc(C(=O)NC(C)CC)cc2n2c(=O)n(Cc3ccccc3)nc12 (stereo not given) | 3.97 | 0 | 6.46 | 3.72 | 4.11 |
| Cc1cc(C)cc(NC(=O)CSc2nnc3n(CC(C)C)c(=O)c4ccc(C(=O)NC(C)C)cc4n23)c1 | 3.22 | 0.15 | 9.71 | -4.67 | 5.89 |
| Cc1cnc(CC2CCCN(Cc3ccc(F)cc3F)C2)n1Cc1ccccc1 (stereo not given) | -12.5 | -12.7 | -27.9 | -20.3 | -2.78 |
| COc1cc([C@@H]2Nc3c(Cl)cccc3[C@@H]3C=CC[C@@H]32)cc(Br)c1OC | -12.1 | -2.31 | -13.7 | -19.6 | -19 |
| C/C(=C/CO)CC[C@H]1[C@]2(C)C[C@H](O)CC(C)(C)[C@H]2CC[C@]1(C)O | 0.754 | 5.97 | 10.2 | -6.67 | 2.9 |
| Cc1ccc(CN2C(=O)c3ccccc3CC2(C)C(=O)NCc2ccccc2C)cc1 (stereo not given) | 4.97 | 0 | -0.368 | -4.22 | 2.9 |
| COC(=O)C1=CO[C@@H](O[C@@H]2O[C@H](CO)[C@@H](O)[C@H](O)[C@H]2O)[C@@H]2[C@@H](C)[C@@H](O)C(O)[C@H]12 (stereo not given in full) | 4.99 | 7.53 | 7.21 | -6.9 | -0.859 |
| CN(CCc1ccccn1)C(=O)[C@@]12CCCC[C@H]1N(C)C(=O)CC2 | -1.49 | -2.69 | 0.604 | -0.658 | -0.569 |
| CC(=O)N1CCC(N2CCC[C@H]2c2nc(-c3ccc(-c4ccncc4)nc3)no2)CC1 | -15.4 | -14.4 | -19.4 | -20.9 | -3.35 |
| CC1CCN(c2ncncc2-c2nc(-c3ccccc3)no2)CC1 | -30.2 | -12.3 | -30.2 | -21.3 | -5.33 |
| CC1(C(=O)O)CCCC2(C)C3CCC4CC3(CCC12)CC4=O (stereo not given) | 0.028 | 2.27 | 7.67 | -11.9 | -1.83 |

| SMILES | activity change, negative = inhibition [1] [%] | activity change, negative = inhibition [2] [%] | activity change, negative = inhibition [3] [%] | activity change, negative = inhibition [4] [%] | activity change, negative = inhibition [5] [%] |
| --- | --- | --- | --- | --- | --- |
| CC(=O)O[C@H]1CC(C)(C)CC2[C@]13CO[C@@]21CCC2[C@@]4(C)CC[C@H](O[C@@H]5OC[C@H](O[C@@H]6O[C@H](CO)[C@@H](O)[C@H](O)[C@H]6O[C@@H]6OC[C@@H](O[C@@H]7O[C@H](CO)[C@@H](O)[C@H](O)[C@H]7O)[C@H](O)[C@H]6O)[C@H](O)[C@H]5O[C@@H]5O[C@H](CO)[C@@H](O)[C@H](O)[C@H]5O)[C@@](C)(CO)C4CC[C@@]2(C)[C@]1(C)C[C@H]3O (stereo not given in full) | 4.48 | 4.8 | 14.7 | -6.52 | 10.7 |
| CC(C)Cn1c(=O)c2ccccc2n2c(SCc3ccccc3Cl)nnc12 | -4.68 | 1.38 | 11 | -17.4 | 6.3 |
| O=C(Cn1c(=O)oc2cc(S(=O)(=O)N3CCCC3)ccc21)NCCc1ccccc1 | -4.54 | 1.03 | -7.36 | 4.99 | -15.3 |
| O=C(CCCc1nnc2n3nc(-c4ccccc4)nc3c3ccccc3n12)N1CCN(c2ccccn2)CC1 | -11.3 | 0.125 | -10.2 | -1.84 | -12 |
| CCOc1ccc(N2C(=O)c3cc(-c4cccs4)nn3CC2(C)C(=O)NC2CCCCC2)cc1 (stereo not given) | -0.75 | 3.21 | 0.545 | 2.54 | 0.221 |
| COc1cc(OC)cc(N2C(=O)c3ccc(-c4ccco4)n3CC2(C)C(=O)NC2CCCC2)c1 (stereo not given) | 0.409 | 0.258 | 7.42 | 9.19 | 1.25 |
| COC(=O)C1=CN(CC(=O)NCCCc2ccccc2)S(=O)(=O)N=C1C | -4.94 | -3.98 | -2.69 | -5.8 | -15.9 |
| Cc1ccc2c(C(=O)NCc3ccc(C(F)(F)F)cc3)cc(NC(=O)C(C)C)cc2n1 | -2.81 | -0.007 | -1.14 | -10.8 | 13.2 |
| N#C[C@@H]1C[C@H](F)CN1C(=O)CNC1[C@H]2CN(C(=O)c3ccc(F)cc3)C[C@@H]12 (stereo not given in full) | 4.22 | 4.43 | 1.69 | -8.33 | -1.79 |
| Cc1ccccc1CN1C(=O)c2ccc(-c3ccco3)n2CC1(C)C(=O)NC1CCC(C)CC1 (stereo not given) | -0.966 | 0 | 4.05 | -4.67 | -0.046 |
| CC(C)C[C@@H](N)C(=O)N[C@H]1C(=O)N[C@@H](CC(N)=O)C(=O)N[C@H]2C(=O)N[C@H]3C(=O)N[C@H](C(=O)N[C@H](C(=O)O)c4cc(O)cc(O)c4-c4cc3ccc4O)[C@H](O)c3ccc(c(Cl)c3)Oc3cc2cc(c3O[C@@H]2O[C@H](CO)[C@@H](O)[C@H](O)[C@H]2O[C@H]2C[C@](C)(N)[C@H](O)[C@H](C)O2)Oc2ccc(cc2Cl)[C@H]1O | 2.14 | -1.76 | 10.2 | -6.97 | 4.41 |
| Cn1cc(CNC(=O)c2ccc(S(=O)(=O)N[C@@H]3CCNC3)cc2)cn1 | -2.44 | -9.54 | -2.47 | -7.65 | 0.711 |
| CC1=C(C(=O)Nc2ccccc2)C(c2cc(C)ccc2C)N2C(CC(=O)N3CCCC3)=CSC2=N1 (stereo not given) | -11.9 | -14.4 | -11.3 | -13.5 | -11.8 |
| CS(=O)(=O)N1CCC(C2CCN(Cc3ccc4c(c3)CCO4)C2)CC1 (stereo not given) | -6.95 | -3.89 | -5.12 | -14.3 | -24.3 |
| CC1(C(=O)NC2CCCCCCC2)Cc2ccccc2C(=O)N1CC1CCCO1 (stereo not given) | -5.21 | 0.452 | -2.07 | -0.484 | -7 |
| O=c1c2ccccc2n2c(-c3cc(Br)cs3)nnc2n1CCc1ccccc1 | 0.421 | 0 | 5.89 | 5.87 | -1.94 |
